According to the supplement of paper PMC3334620:
Whole data set: some 33,000 sequences, median “E-score (-0.5 to 0.5)” near -0.017, cut for the highest 2% near 0.3. The list shows a part of the results.

Biological target: T1, Sut1 (UniProt P53032)
T1 sequence: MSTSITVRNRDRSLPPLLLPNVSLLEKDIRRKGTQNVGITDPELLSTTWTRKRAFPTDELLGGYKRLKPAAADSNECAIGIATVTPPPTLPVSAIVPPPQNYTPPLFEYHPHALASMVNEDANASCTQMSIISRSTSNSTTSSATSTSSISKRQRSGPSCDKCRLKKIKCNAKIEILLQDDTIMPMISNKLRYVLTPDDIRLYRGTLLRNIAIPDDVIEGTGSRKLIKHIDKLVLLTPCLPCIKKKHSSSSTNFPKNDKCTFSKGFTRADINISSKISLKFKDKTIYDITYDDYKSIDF
Test: PBM E-score (8-mer binding enrichment) (E-score (-0.5 to 0.5)); higher = stronger / more preferred TF binding; most listed sequences are background and not binding sites
Settings: protein concentration: 200 nM; construct: GST-full length
In short: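 Yeast transcription factors carrying a GST tag, as full-length proteins or DNA-binding domains, were produced by PURExpress in vitro transcription/translation. About 100-200 nM protein was applied to universal all-10-mer Agilent arrays, double-stranded by primer extension on fresh or once-stripped slides. Bound protein was detected with fluorescent anti-GST, and scans were normalised with masliner. The Universal PBM Analysis Suite gave each ungapped eight-base word, pooled with its reverse complement, an E-score, a modified Wilcoxon-Mann-Whitney statistic.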

Sequence | PBM E-score
ATGCTATA | -0.0454
AAGAAATA | 0.177
CTCCTTTA | -0.0522
ATCACAAC | 0.125
GTACATAC | 0.124
AGCGCCGA | 0.0701
AGAGCCTA | -0.0272
TCTGCAAA | -0.0765
ATTGCATC | 0.0862
AGAAAGTG | -0.0157
ATGAGTAA | -0.0418
CTTTTCCC | -0.0342
AAAGTAAA | 0.22
AAGAAGAT | 0.127
CGGTGAAA | 0.206
ATACAATG | 0.243
GGGGCACC | -0.175
AACATGGC | -0.159
AATGGGAA | 0.0116
CCGCAGAG | -0.241
AACACGAG | -0.016
AAGCATGG | -0.176
ACACAAAT | 0.144
ACTGATAT | 0.137
AGCTAACC | -0.141

Sequence | PBM E-score
ATTGCATA | 0.0701
ATGATGCA | 0.142
CGATAACA | 0.0126
CGCTACCC | -0.135
CAACACTG | -0.175
CGGCGATA | 0.192
AGTACAAA | 0.152
CGTTCAGA | -0.233
AAACTGCC | 0.022
ACATGTAG | 0.167
GCCTGGAA | -0.066
GCTACACC | -0.166
ACACGCGG | -0.138
ATATAGCA | 0.0316
CAAACCAA | 0.145
AAGTATCA | 0.0843
ATCGTTGG | 0.0121
GCGATAGA | -0.104
ACCTGAGG | -0.313
AAGATTAC | 0.191
GATCGGAC | 0.367
GTTACCCA | -0.19
AGGTGGTC | -0.094
ATATGCAC | 0.133
GGATTGAC | -0.0159

Sequence | PBM E-score
CCGCGAAA | 0.076
CAAAGCTA | 0.031
ACGCCAAA | 0.049
ACTTAATA | 0.259
AGCCGTGC | -0.275
CACTATGC | 0.00999
AGAATCGC | -0.0063
CCACACGG | -0.0635
ATGCGGAA | 0.0745
GTCGTACA | 0.152
GAGATTTA | 0.12
CGGCACAG | 0.0997
AACACTAC | 0.0196
TTCACCAA | 0.0708
GCATTTCC | 0.0947
GTCCAGGA | -0.149
AATCACGG | 0.223
GATCTTCC | 0.00163
AGTATCAC | 0.0249
GACGATAA | -0.0234
AGCGGCAT | -0.0727
CTTAATGA | 0.0149
AAATTTAT | 0.192
CCGACTAG | -0.012
ATCGATGC | -0.0895

Sequence | PBM E-score
CCCGTCAC | -0.128
ATGAGGAG | 0.0843
AGAAGCCA | -0.0285
GGCAATTA | 0.0911
GAGTGACC | -0.104
ACAGTAAA | 0.165
AAGGGCAG | -0.169
CGACTTAC | -0.0195
GGATTGGA | -0.0756
CATATAGC | 0.0133
ATGGTTAC | 0.0832
CGCCACCA | -0.255
GCGTAACC | -0.019
ACGAGTGC | -0.0845
ACTAAACC | 0.0318
CCCACCTA | -0.166
TATAACGA | 0.187
ATCGGCTA | -0.0625
CAGAATCC | -0.0104
CCGTTGAA | -0.00597
TCTGGTAA | -0.0251
CCACACCA | -0.0795
GAGAGGCA | -0.0692
AGGCACCG | -0.191
AGAACTCT | 0.07

Sequence | PBM E-score
GTACCGAC | -0.181
CGTGGCAA | -0.166
TCATTTAA | 0.0998
CGATAGTC | 0.131
GTCGCCAC | -0.202
AAGTAAAC | 0.00246
ATGGATAC | 0.0503
AAACAAAG | 0.322
AATCGCAA | 0.0677
TAAGCTAA | 0.0524
AGTACGGG | -0.112
CACATCTG | -0.213
CTTTCGGC | 0.0219
CCTTCGTA | -0.101
ATACCGGC | -0.0331
CTGTTTAA | 0.197
GACAAGTC | -0.0286
ATGAATCA | 0.14
ATAACGGG | 0.0139
TTGATAAA | 0.328
CCGTATCA | 0.118
CTCTTCCA | 0.107
ACATTATA | 0.16
GCTAATAC | 0.0995
CACGGGGA | -0.0337

Sequence | PBM E-score
ATTACAAG | 0.21
GTGGCCTA | -0.164
CCCTTTCA | -0.253
CAGCGAAA | -0.0168
AGGACGCC | -0.259
CTAATCAA | 0.126
CGTCTAAC | -0.0531
ATTAAGGC | 0.092
CACTTTAC | 0.0727
ATGGGGTG | -0.191
GGTTACGA | -0.0578
AGGTCGAA | -0.0783
GGTCCCAC | -0.18
GGGTGGCA | -0.207
CCAGGCGG | -0.0099
CGACCCGA | -0.176
AAGAATGT | 0.0552
AGACGCGC | -0.199
CCATAAAC | -0.122
GTAAGCGA | -0.0422
AGGCGGTA | -0.202
CGAGCTCA | 0.0432
CAGGTAAG | -0.119
AATAGCGT | 0.143
GAATGACA | 0.0261

Sequence | PBM E-score
TCCGAGAA | 0.407
CTGCAGGA | 0.127
CATACACG | -0.00231
AGCGTTTA | 0.0143
TGCCTAAA | -0.00993
CAACGCTG | -0.0923
CAGAGTAC | -0.128
CACGCATA | -0.0972
AGAATCTG | 0.0536
GCTAAAAA | -0.0323
ACGTCTTA | -0.206
CCGCGGCC | -0.0143
GACGGGCC | -0.167
TAACTAAA | 0.0989
CGCTGCCG | -0.223
GCGCCGCA | -0.00935
ATTAGGTA | 0.157
ATCTCCCA | -0.155
GCATAGGA | -0.0648
ATCTTACC | 0.0115
GCGCATAA | -0.166
ACTAGGTG | -0.174
